According to the supplement of paper PMC10126150:
Sequences with one replicate were seen in a single cluster, so their values are uncertain.
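Further: ATP exposure 15 min at 22 °C before imaging.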

What follows are sequences tested on ATP (assay: switch fluorescence ratio, 500 uM ATP over buffer (Cy3 cluster intensity, sum of 5 cycles each) (fold (ratio)); higher = stronger signal-on switching upon ATP binding; sequences stand for … in TCGTCGGCAGCGTCAGATGTGTATAAGAGACAGTTTTTTTTTTTTTTTTTTTTTTTTT…TC). Settings: aptamer strand: ATP DNA aptamer (quencher-CACCTGGGGGAGTATTGCGGAGGAAGG + anchor), 100 nM annealed; ATP concentration: 500 uM; one replicate.
Outline: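 Imaging in selection buffer was followed by imaging after 15 min with 500 uM ATP at 22 °C, for Cy3-labelled switching-strand clusters annealed to 100 nM quencher-labelled ATP aptamer on a modified Illumina MiSeq flow-cell. Five of these buffer/ATP cycles ran, separated by NaOH stripping and re-annealing. The fluorescence ratio per cluster is summed target-cycle over summed buffer-cycle Cy3 intensity, averaged per switch-domain sequence; clusters outside 100-1000 RFU were removed.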
GACCATGTTA gave a switch fluorescence ratio of 1.02.
AAAGAGGCAG gave a switch fluorescence ratio of 0.996.
In the case of CTTAGCATGA, the switch fluorescence ratio is reported as 1.03.
Sequence TAAATCGAAC has a switch fluorescence ratio of 1.09.
With ATCCAAATTT the switch fluorescence ratio was 0.982.
Sequence TAGAGCCGA has a switch fluorescence ratio of 1.01.
CGAAACAAAG gave a switch fluorescence ratio of 1.05.
For TGCTAAAAGA, the switch fluorescence ratio was 1.01.
Work on ACGCGGCGGA yielded a switch fluorescence ratio of 0.997.
TAAACCGAGG gave a switch fluorescence ratio of 0.981.
GCTGCGGGCA gave a switch fluorescence ratio of 0.982.
CTGCATCAAT was tested, and the switch fluorescence ratio was 1.24.
In the case of ACACCGCCAA, the switch fluorescence ratio is reported as 3.23.
CGCTTCCTGT was tested, and the switch fluorescence ratio was 1.08.
For GATTGGTATA, the switch fluorescence ratio was 0.98.
Work on ACGACCGCGT yielded a switch fluorescence ratio of 1.22.
With GGCCGGAACT the switch fluorescence ratio was 1.07.
CCCGTGGGGG showed a switch fluorescence ratio of 1.08.
For ACTTGGGTTT, the switch fluorescence ratio was 1.
For AACTTTACAA, the switch fluorescence ratio was 1.12.
Work on ATACAGGGAC yielded a switch fluorescence ratio of 1.01.
Work on CTCTTGAAAG yielded a switch fluorescence ratio of 1.01.
In the case of CTAGATGTAC, the switch fluorescence ratio is reported as 1.05.
Work on GTTATTCGTA yielded a switch fluorescence ratio of 0.959.
Sequence GCCAGGACTG has a switch fluorescence ratio of 1.03.
ATGAGTTGTC gave a switch fluorescence ratio of 0.975.
With CTGTTTGC the switch fluorescence ratio was 0.964.
GGGTGTCGAT was tested, and the switch fluorescence ratio was 0.983.
For GTATAGTACG, the switch fluorescence ratio was 0.998.
Work on TTGAATTATC yielded a switch fluorescence ratio of 1.02.
With CATTACTGCG the switch fluorescence ratio was 1.04.
In the case of CTAGGGCATC, the switch fluorescence ratio is reported as 0.99.
AAAGGCTAAC showed a switch fluorescence ratio of 0.999.
Sequence ATCATAGAAA has a switch fluorescence ratio of 1.
Sequence GATAGCATAG has a switch fluorescence ratio of 1.09.
TCCAACTTCT gave a switch fluorescence ratio of 1.02.
ATTTTACTG showed a switch fluorescence ratio of 1.04.
TGAGGTCGTG was tested, and the switch fluorescence ratio was 0.955.
AACGGATAGA was tested, and the switch fluorescence ratio was 0.97.
CTGCATGCAT gave a switch fluorescence ratio of 1.07.
Sequence GGAGTGTTC has a switch fluorescence ratio of 0.912.
TTGTAGCCAG gave a switch fluorescence ratio of 1.04.
With CTTTGAACTA the switch fluorescence ratio was 1.
Work on GGTGTTGAGC yielded a switch fluorescence ratio of 0.986.
GTGTAAACCG showed a switch fluorescence ratio of 1.05.
With TGCTGGAGTC the switch fluorescence ratio was 1.03.
With TTTAAATCCC the switch fluorescence ratio was 1.03.
With ATAACGAGCG the switch fluorescence ratio was 1.03.
For TCCTCAACA, the switch fluorescence ratio was 1.28.
For GAAAGGACAG, the switch fluorescence ratio was 0.983.
TTGAGGAACT showed a switch fluorescence ratio of 0.986.
With CTATTTGGAC the switch fluorescence ratio was 1.
Work on ACCGGATTCA yielded a switch fluorescence ratio of 0.999.
TGAGTTGAGG gave a switch fluorescence ratio of 0.988.
TATGAGTCTG gave a switch fluorescence ratio of 1.
With GTAGGTCTCT the switch fluorescence ratio was 1.03.
With AGTTGGGACG the switch fluorescence ratio was 0.94.
In the case of GTTAGCGGGA, the switch fluorescence ratio is reported as 1.01.
For CATGAGCTGA, the switch fluorescence ratio was 0.98.
With TAATTTAAGC the switch fluorescence ratio was 0.947.
AACTTTTCAA gave a switch fluorescence ratio of 0.977.
Work on CAAAGATGCC yielded a switch fluorescence ratio of 0.981.
In the case of CTAGCCGTAG, the switch fluorescence ratio is reported as 0.975.
For TGCAATTGGC, the switch fluorescence ratio was 1.19.
With TTCGAGCTTA the switch fluorescence ratio was 1.06.
Work on ATCCGTTAGG yielded a switch fluorescence ratio of 0.958.
Sequence AAAAGGGTT has a switch fluorescence ratio of 1.01.
With TCGATCTAGG the switch fluorescence ratio was 0.995.
TCCGAGCGAT showed a switch fluorescence ratio of 1.08.
GAGGTATATA showed a switch fluorescence ratio of 1.04.
For CCAACGATTG, the switch fluorescence ratio was 1.02.
GGGAGCACTG gave a switch fluorescence ratio of 1.82.
Work on ATAGCTCGGG yielded a switch fluorescence ratio of 0.982.
For AAGTGTCCGT, the switch fluorescence ratio was 0.972.
Sequence CGCCATGAGG has a switch fluorescence ratio of 0.961.
Sequence ATCGATGCGT has a switch fluorescence ratio of 1.01.
Work on GCTGCTGCGA yielded a switch fluorescence ratio of 1.04.
ATGAAGAAGG was tested, and the switch fluorescence ratio was 0.998.
In the case of AATGTCTAAC, the switch fluorescence ratio is reported as 0.975.
Sequence ACTTTCCGAG has a switch fluorescence ratio of 1.63.
For CTCCGGCCAG, the switch fluorescence ratio was 1.71.
GCCACTGCGT was tested, and the switch fluorescence ratio was 1.02.
Work on TAAAACAGAA yielded a switch fluorescence ratio of 0.995.
AGGGGCGTA was tested, and the switch fluorescence ratio was 0.967.
GTAGTGGTAG gave a switch fluorescence ratio of 1.01.
GAGGATTAAT gave a switch fluorescence ratio of 0.952.
TCTTTTGCGC was tested, and the switch fluorescence ratio was 1.02.
TTCAGGAGAT was tested, and the switch fluorescence ratio was 1.3.
In the case of TAGCAATATT, the switch fluorescence ratio is reported as 4.61.
ATTTCGGGCA showed a switch fluorescence ratio of 0.955.
TCAGTGGGCG was tested, and the switch fluorescence ratio was 0.906.
Sequence ATGTCTAAGT has a switch fluorescence ratio of 1.03.
With AAGGTAACGC the switch fluorescence ratio was 1.07.
In the case of GATTAAGGCC, the switch fluorescence ratio is reported as 1.01.
AGGGCTGATC was tested, and the switch fluorescence ratio was 1.01.
Sequence GGCGCTGCTC has a switch fluorescence ratio of 0.981.
Sequence TGCCCGGCGT has a switch fluorescence ratio of 1.04.
Sequence AGCAATCTA has a switch fluorescence ratio of 2.13.
TGTGAAGGAC gave a switch fluorescence ratio of 1.
CACATTTTA was tested, and the switch fluorescence ratio was 0.992.
Sequence TTAGTAATA has a switch fluorescence ratio of 1.01.
CATTTGAGGA gave a switch fluorescence ratio of 1.01.
ACTGGTTACC was tested, and the switch fluorescence ratio was 1.06.
Work on AATGAATACT yielded a switch fluorescence ratio of 1.07.
With GATGATAGTG the switch fluorescence ratio was 0.958.
TTGAAACCGT gave a switch fluorescence ratio of 1.2.
In the case of TAACTGAAAG, the switch fluorescence ratio is reported as 1.03.
AATGCGACGT showed a switch fluorescence ratio of 1.01.
In the case of CTGGCCTAGC, the switch fluorescence ratio is reported as 0.991.
In the case of AGCGTATCC, the switch fluorescence ratio is reported as 1.01.
ATTTGGCGGA was tested, and the switch fluorescence ratio was 0.996.
For TAATAAAACA, the switch fluorescence ratio was 0.983.
GGATGGCGGG showed a switch fluorescence ratio of 1.05.
GCTCCGTGTG was tested, and the switch fluorescence ratio was 1.97.
Work on ATTCTTGGCA yielded a switch fluorescence ratio of 0.986.
GCTGAGACTT was tested, and the switch fluorescence ratio was 1.03.
For TCTAGCCTCG, the switch fluorescence ratio was 0.986.
Work on TAAATGTGGC yielded a switch fluorescence ratio of 0.89.
Sequence AGGCTTTGGT has a switch fluorescence ratio of 0.979.
GTCCGGGTTG was tested, and the switch fluorescence ratio was 1.26.
CACTCTCTCG was tested, and the switch fluorescence ratio was 0.995.
For GCGCTGACAT, the switch fluorescence ratio was 1.02.
In the case of ACGAAGCAGG, the switch fluorescence ratio is reported as 1.59.
In the case of TTATTCAATT, the switch fluorescence ratio is reported as 1.06.
Work on TATTCTTAAT yielded a switch fluorescence ratio of 0.996.
Work on GGCACTCGG yielded a switch fluorescence ratio of 0.994.
ATGGCAGTCG showed a switch fluorescence ratio of 0.975.
Sequence TCGTCTGGA has a switch fluorescence ratio of 0.986.
In the case of GCCCTTTCGG, the switch fluorescence ratio is reported as 1.
TTGGTATGGA was tested, and the switch fluorescence ratio was 0.993.
For CATGCCATTC, the switch fluorescence ratio was 1.02.
Work on TTACTTCAAG yielded a switch fluorescence ratio of 1.07.
Work on ATTTCCTAAT yielded a switch fluorescence ratio of 1.
With TGATATAAGG the switch fluorescence ratio was 0.991.
TTGAAATATG showed a switch fluorescence ratio of 1.05.
Sequence TTAAAGATCT has a switch fluorescence ratio of 1.01.
In the case of ACAGTTCGTT, the switch fluorescence ratio is reported as 0.934.
TGCAGCTCTA gave a switch fluorescence ratio of 0.992.
GGTTTGTTAG showed a switch fluorescence ratio of 1.02.
Work on CTGGTTAATA yielded a switch fluorescence ratio of 1.
Work on CATATAGAAA yielded a switch fluorescence ratio of 1.
Work on CTTAAGGCAC yielded a switch fluorescence ratio of 0.988.
GACCGGTTTC showed a switch fluorescence ratio of 0.99.
GACCTCCTAA showed a switch fluorescence ratio of 1.2.
AATTCCCGGG was tested, and the switch fluorescence ratio was 0.963.
Sequence CATAATACAC has a switch fluorescence ratio of 1.05.
With AGTCCTACGT the switch fluorescence ratio was 1.11.
With AGGGGTTTCC the switch fluorescence ratio was 0.981.
For CGTTCAACCC, the switch fluorescence ratio was 1.05.
Sequence CATGGGTCGT has a switch fluorescence ratio of 0.933.
CTACAGTTGG showed a switch fluorescence ratio of 1.01.
With TTAGGATGGA the switch fluorescence ratio was 0.972.
CAAAGTTATT gave a switch fluorescence ratio of 1.02.
